The supplement of paper PMC11125491
± gives the standard deviation of the averaged measurements. Growth of baker's yeast expressing single-residue variants of Pneumocystis jirovecii dihydrofolate reductase in 8.8 or 44 µM methotrexate (about 75% and 90% inhibition of the wild type). Selection coefficient per generation; 0 = like wild type, above 0 = less sensitive, below 0 = more sensitive or loss of function. No active / inactive call per row; the paper calls resistant above 0.220 (8.8 µM) or 0.243 (44 µM) together with a significance test. At 44 µM about 15% of codons end with one read or none, so the lowest values are floors (replicate rank correlation 0.74; 0.94 at 8.8 µM).

B1: UniProt A0EPZ9; numbered along this chain (parent)
chain: MDWQKSLTLIVALTLSRGIGLKNDLPWKLKSDMMFFSRVTSGLLVTRSTGQMNVVLMGRKTWESLPAHSRPLKNRINVVISRQEVLDLGGGAYHARSLDDALALLSQIYDSTSKIQLNRVFVIGGGELCKAAMEHSRLNRIIATVIHNEVDCDVFFPIDFRSSQSCLPWRKQDHSVLEAWVGSKVPQGKINENGFIYEFEMWIRDI

Variants of: B1
Assay: selection coefficient against synonymous wild-type codons (log2 per generation); higher = faster growth than wild type
Conditions: with Saccharomyces cerevisiae carrying the variant on a plasmid
Protocol: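 Pooled growth of yeast carrying single-residue variants of P. jirovecii dihydrofolate reductase (own DFR1 gene intact), two passages at 30 °C, three cultures, sequenced before and after. Codons with under 15 starting reads are left out; codons of one change are averaged.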

Variant | selection coefficient against synonymous wild-type codons (log2) (methotrexate 8.8 µM) | selection coefficient against synonymous wild-type codons (log2) (methotrexate 44 µM)
S41M | -0.324 ± 0.12 | -0.275 ± 0.13
N77R | -0.502 ± 0.1 | -0.244 ± 0.13
N77T | 0.248 ± 0.026 | 0.338 ± 0.046
K184C | -0.145 ± 0.065 | -0.253 ± 0.21
K184V | -0.194 ± 0.069 | -0.136 ± 0.14
A101K | -0.715 ± 0.052 | -0.255 ± 0.04
K28C | -0.108 ± 0.082 | -0.0422 ± 0.061
K28Q | 0.037 ± 0.019 | -0.00425 ± 0.082
K28V | -0.0445 ± 0.07 | -0.056 ± 0.15
K22H | 0.0124 ± 0.055 | -0.137 ± 0.053
K22R | -0.0812 ± 0.045 | -0.0357 ± 0.11
K22W | -0.218 ± 0.014 | -0.115 ± 0.13
S16T | 0.158 ± 0.037 | 0.128 ± 0.041
P168K | -0.0984 ± 0.063 | -0.0528 ± 0.064
L13F | 0.0893 ± 0.033 | 0.098 ± 0.053
N193Q | -0.0175 ± 0.075 | -0.067 ± 0.12
N193I | -0.421 ± 0.13 | -0.252 ± 0.04
N193A | -0.0711 ± 0.013 | -0.12 ± 0.049
T46A | 0.000668 ± 0.036 | -0.0179 ± 0.088
D159I | -0.0817 ± 0.044 | -0.159 ± 0.015
D159P | -0.0174 ± 0.06 | -0.0741 ± 0.13
D159G | -0.0103 ± 0.04 | -0.119 ± 0.1
I146G | 0.265 ± 0.057 | 0.372 ± 0.042

Variant | selection coefficient against synonymous wild-type codons (log2) (methotrexate 8.8 µM) | selection coefficient against synonymous wild-type codons (log2) (methotrexate 44 µM)
I146L | 0.0458 ± 0.08 | -0.0139 ± 0.13
I146A | 0.42 ± 0.038 | 0.487 ± 0.033
S183Y | -0.239 ± 0.035 | -0.412 ± 0.03
S183I | -0.331 ± 0.028 | -0.368 ± 0.075
T14S | -0.113 ± 0.093 | -0.121 ± 0.11
T14W | -0.314 ± 0.26 | -0.0888 ± 0.24
R59F | -0.0168 ± 0.046 | -0.173 ± 0.096
R59Q | 0.257 ± 0.025 | 0.289 ± 0.03
R170E | 0.0562 ± 0.043 | -0.0961 ± 0.071
R170L | -0.0476 ± 0.035 | -0.157 ± 0.13
R140K | 0.00524 ± 0.051 | 0.0908 ± 0.12
K30N | 0.0232 ± 0.092 | -0.0153 ± 0.12
K30M | 0.101 ± 0.033 | 0.167 ± 0.0053
I141C | -0.108 ± 0.043 | -0.192 ± 0.16
P186L | -0.381 ± 0.062 | -0.33 ± 0.11
G91S | -0.0295 ± 0.054 | -0.0113 ± 0.088
F36E | -0.325 ± 0.074 | -0.0119 ± 0.11
V39P | -0.402 ± 0.03 | -0.154 ± 0.061
T61D | -0.537 ± 0.043 | -0.289 ± 0.015
T61M | -0.518 ± 0.071 | -0.244 ± 0.12
D100T | -0.343 ± 0.14 | -0.0781 ± 0.17
D100H | -0.0717 ± 0.085 | 0.0484 ± 0.093
D100R | -0.682 ± 0.15 | -0.329 ± 0.059

Variant | selection coefficient against synonymous wild-type codons (log2) (methotrexate 8.8 µM) | selection coefficient against synonymous wild-type codons (log2) (methotrexate 44 µM)
F121S | -0.383 ± 0.067 | -0.251 ± 0.14
G58M | -0.0369 ± 0.11 | 0.0958 ± 0.016
Q83V | -0.377 ± 0.084 | -0.192 ± 0.12
S31W | -0.416 ± 0.12 | -0.311 ± 0.11
V154K | 0.351 ± 0.046 | 0.345 ± 0.055
V122K | -0.773 ± 0.023 | -0.313 ± 0.005
V122C | -0.337 ± 0.067 | -0.148 ± 0.11
L138R | -0.306 ± 0.058 | -0.162 ± 0.088
I19V | 0.34 ± 0.036 | 0.391 ± 0.032
I19Q | 0.631 ± 0.043 | 0.672 ± 0.011
M201T | 0.076 ± 0.06 | -0.0827 ± 0.17
M201I | -0.22 ± 0.054 | -0.249 ± 0.082
A92W | -0.536 ± 0.13 | -0.327 ± 0.032
N118F | -0.127 ± 0.029 | -0.131 ± 0.067
F199C | 0.335 ± 0.17 | 0.528 ± 0.1
F199K | 1.02 ± 0.049 | 1.45 ± 0.051
F199A | 0.531 ± 0.058 | 0.667 ± 0.042
T40W | -0.666 ± 0.024 | -0.31 ± 0.12
H94F | -0.523 ± 0.05 | -0.239 ± 0.055
H94C | -0.426 ± 0.071 | -0.256 ± 0.11
I123Q | 0.0178 ± 0.022 | 0.306 ± 0.051
G182S | -0.18 ± 0.046 | -0.195 ± 0.11
G182F | -0.416 ± 0.036 | -0.4817 ± 0.0045

Variant | selection coefficient against synonymous wild-type codons (log2) (methotrexate 8.8 µM) | selection coefficient against synonymous wild-type codons (log2) (methotrexate 44 µM)
D205W | -0.585 ± 0.11 | -0.463 ± 0.11
L15A | 0.388 ± 0.035 | 0.382 ± 0.068
A67V | -0.102 ± 0.083 | -0.0942 ± 0.19
A67D | 0.00635 ± 0.041 | -0.0506 ± 0.14
V185L | -0.106 ± 0.043 | -0.217 ± 0.098
F195P | 0.348 ± 0.057 | 0.375 ± 0.014
F195A | 0.272 ± 0.047 | 0.207 ± 0.071
V11L | 0.266 ± 0.044 | 0.307 ± 0.056
V11D | 0.127 ± 0.04 | 0.408 ± 0.088
V11H | 0.676 ± 0.026 | 0.824 ± 0.068
I80Q | -0.71 ± 0.06 | -0.207 ± 0.027
N148I | -0.467 ± 0.23 | -0.219 ± 0.018
Q51E | 0.0218 ± 0.073 | 0.0496 ± 0.044
Q51T | -0.0455 ± 0.089 | -0.09 ± 0.043
V54N | -0.534 ± 0.04 | -0.244 ± 0.046
L43F | -0.114 ± 0.039 | -0.201 ± 0.014
L43C | -0.0395 ± 0.076 | -0.0202 ± 0.083
L43E | 0.314 ± 0.056 | 0.223 ± 0.097
T49I | -0.131 ± 0.093 | -0.158 ± 0.1
T49M | -0.0881 ± 0.0036 | 0.0037 ± 0.092
T49A | 0.00333 ± 0.022 | -0.0674 ± 0.13
T49E | 0.0825 ± 0.037 | 0.0404 ± 0.11
P26T | 0.131 ± 0.046 | 0.151 ± 0.063

Variant | selection coefficient against synonymous wild-type codons (log2) (methotrexate 8.8 µM) | selection coefficient against synonymous wild-type codons (log2) (methotrexate 44 µM)
P26K | -0.251 ± 0.019 | -0.0282 ± 0.1
P26W | -0.586 ± 0.032 | -0.229 ± 0.12
E63P | -0.403 ± 0.039 | -0.156 ± 0.051
E63H | -0.347 ± 0.11 | -0.281 ± 0.044
N53M | -0.172 ± 0.075 | -0.0739 ± 0.076
N53E | 0.207 ± 0.0097 | 0.237 ± 0.029
V85N | 0.201 ± 0.018 | 0.298 ± 0.12
H174Q | -0.0469 ± 0.093 | -0.112 ± 0.026
H174N | -0.105 ± 0.16 | -0.0648 ± 0.046
I10C | 0.607 ± 0.026 | 0.705 ± 0.01
F156L | 0.431 ± 0.03 | 0.466 ± 0.035
D32M | -0.685 ± 0.037 | -0.438 ± 0.0045
I115L | -0.125 ± 0.19 | -0.0697 ± 0.19
P157L | -0.538 ± 0.11 | -0.274 ± 0.11
P157M | -0.569 ± 0.13 | -0.393 ± 0.04
R47M | -0.181 ± 0.095 | -0.226 ± 0.19
R47E | 0.231 ± 0.0095 | 0.21 ± 0.04
R47G | 0.0892 ± 0.039 | 0.109 ± 0.07
R47W | -0.305 ± 0.013 | -0.283 ± 0.2
R70G | -0.0908 ± 0.091 | -0.127 ± 0.17
M33G | 0.981 ± 0.035 | 1.27 ± 0.023
W62Y | -0.151 ± 0.02 | -0.257 ± 0.081
W62D | -0.579 ± 0.028 | -0.332 ± 0.032
